Assay results published in PubChem BioAssay AID624418 (National Center for Advancing Translational Sciences (NCATS), 2012).
Screen size: about 410,000 compounds; about 530 (0.13%) were called active. Inconclusive means that the source gave no clear call. Such entries were picked first, then a sample of the others. Calls follow the shape of the dose curve; as a rule, active = well fitted inhibition curve with a large enough effect; inconclusive = small, poorly fitted or top-dose-only effect, or another doubt; inactive = no such curve, though single readings can be large or run the other way. Potencies of inconclusive entries are doubtful fits and often do not repeat.
Potency is read from the fitted curve at half-maximal effect.

Experiment: qHTS of GLP-1 Receptor Inverse Agonists: Cytotox Screen
Details: HEK293 cAMP-luciferase reporter cells, luminescence, 24 h; series mostly up to 38.3 µM
Method in brief: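 MLSMR compounds, 24 hr on cells at 37 deg C/5% CO2; luminescence after luciferase reagent (12 min RT). Inhibition counted as the undesired cytotoxic outcome.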
For `COc1ccc(CCNCC(O)Cn2c3ccccc3c3ccccc32)cc1OC` (stereo not drawn), the Potency was inconclusive: 28.2 µM [inhibitor, single point].
For `Cc1c(NP(=O)(c2ccc(Br)cc2)c2ccc(Br)cc2)c(=O)n(-c2ccccc2)n1C`, the Potency was “inactive”.
In the case of `COc1cccc(C(=O)NC2=NCCS2)c1`, the Potency is reported as “inactive”.
In the case of `CN(C)C(C)(C)C#CCC(c1ccccc1)c1ccccc1`, the Potency is reported as inconclusive: 11.2 µM [inhibitor, partial curve, poor fit].
With `COc1ccccc1C(CNC(=O)COc1cc(C)ccc1Cl)N1CCCC1` (stereo not drawn) the Potency was inconclusive: 28.2 µM [inhibitor, single point].
In the case of `COc1ccc(-c2nnc(SCC(=O)Nc3nc4ccccc4s3)n2C)cc1`, the Potency is reported as “inactive”.
In the case of `COc1ccc(/C=C/C(=O)c2cc(Br)ccc(=O)c2O)cc1`, the Potency is reported as inconclusive: 28.2 µM [inhibitor, single point].
For `Cc1ccc2nc(NC(=O)CSc3nc(=O)n(CCCN(C)C)c4c3CCC4)sc2c1`, the Potency was inconclusive: 28.2 µM [inhibitor, single point].
With `COc1ccc(CCNC(=O)c2cc([N+](=O)[O-])ccc2N2CCOCC2)cc1` the Potency was inconclusive: 11.2 µM [inhibitor, partial curve, poor fit].
With `O=C(CSc1nnc(-c2ccco2)o1)c1ccc([N+](=O)[O-])cc1` the Potency was “inactive”.
In the case of `S=c1[nH]nc(-c2ccco2)n1/N=C/c1ccc(Cl)cc1Cl`, the Potency is reported as inconclusive: 28.2 µM [inhibitor, single point].
For `Cc1cc(NC(=O)CSc2nc(-c3ccco3)cc(C(F)(F)F)n2)no1`, the Potency was inconclusive: 1.26 µM [inhibitor, full curve, poor fit].
In the case of `COc1ccc(S(=O)(=O)NCc2ccccn2)cc1NC(=O)c1ccccc1F`, the Potency is reported as inconclusive: 2.82 µM [inhibitor, partial curve, poor fit].
In the case of `COc1ccccc1C(=O)c1c(N)c(-c2nc(-c3ccccc3)cs2)c2ccccn12`, the Potency is reported as “inactive”.
For `Cc1cc(/C=C2\SC(=S)NC2=O)cc(C)c1O`, the Potency was inconclusive: 10 µM [inhibitor, partial curve, poor fit].
With `O=C(NC1CCCc2ccccc21)C1CCN(c2nnc(-n3cccc3)s2)CC1` (stereo not drawn) the Potency was inconclusive: 11.2 µM [inhibitor, single point].
With `O=C(NCc1ccc(F)cc1)C(c1ccccc1)c1ccccc1` the Potency was “inactive”.
With `Cn1c(C(=O)NCc2ccccn2)cc2c(=O)n3ccccc3nc21` the Potency was “inactive”.
With `C=CCNc1nc(NCc2cccc(OC)c2)c2sc(-c3ccccc3)cc2n1` the Potency was inconclusive: 12.6 µM [inhibitor, single point].
In the case of `CNC(=O)c1sc(Nc2cc(C)ccc2C)nc1C`, the Potency is reported as inconclusive: 28.2 µM [inhibitor, single point].
With `O=C(/C=N/O)NCCCN1CCCCCC1` the Potency was inconclusive: 10 µM [inhibitor, single point].
For `Cc1cc(OCn2ccc(C(=O)O)n2)ccc1Cl`, the Potency was “inactive”.
In the case of `C[C@H]1Cn2cnc(C(=O)NCc3ccc(CNC(=O)OC(C)(C)C)cc3)c2C(=O)N1`, the Potency is reported as “inactive”.
In the case of `COc1ccc(C2=NOC(Cn3nc(-c4ccccc4)cc3C(=O)O)C2)cc1` (stereo not drawn), the Potency is reported as inconclusive: 0.501 µM [inhibitor, full curve, poor fit].
With `Cc1ccc(/C(N)=N/OC(=O)c2cccs2)cc1` the Potency was inconclusive: 14.1 µM [inhibitor, single point].
With `N#CCSc1nc(Nc2ccc3c(c2)OCO3)c2ccccc2n1` the Potency was inconclusive: 28.2 µM [inhibitor, single point].
In the case of `CCCSc1ncc(Cl)c(C(=O)Nc2sc3c(c2C(=O)NCC)CCCC3)n1`, the Potency is reported as “inactive”.
For `CC(O)(C#CCN1CCCC1)c1ccccc1` (stereo not drawn), the Potency was inconclusive: 28.2 µM [inhibitor, single point].
In the case of `CCOc1cccc(/C=N/NC(=S)Nc2ccccc2[N+](=O)[O-])c1O`, the Potency is reported as inconclusive: 12.6 µM [inhibitor, partial curve, poor fit].
With `CN(CC/C=C1/c2ccccc2CSc2ccccc21)CCCO` the Potency was inconclusive: 12.6 µM [inhibitor, single point].
With `O=C(CSc1nnc(Cn2nnc(-c3ccccc3)n2)n1-c1ccccc1)Nc1ccc(F)cc1` the Potency was inconclusive: 28.2 µM [inhibitor, single point].
In the case of `CC(C)(C)C(=O)NC(NC(=S)Nc1sc2c(c1C#N)CCCC2)C(Cl)(Cl)Cl` (stereo not drawn), the Potency is reported as inconclusive: 28.2 µM [inhibitor, single point].
For `CCCCNC(=S)NC1CCCC1`, the Potency was inconclusive: 17.8 µM [inhibitor, single point].
In the case of `COc1ccc(C/C(C)=N/NC(=S)Nc2ccc(C)c(C)c2)cc1`, the Potency is reported as inconclusive: 10 µM [inhibitor, single point].
For `CN1C(=O)c2ccccc2Sc2ccc(NC(=O)Cc3c(F)cccc3Cl)cc21`, the Potency was inconclusive: 22.4 µM [inhibitor, single point].
In the case of `CC(O)(c1ccncc1)c1nc(-c2cccc(C(F)(F)F)c2)cs1` (stereo not drawn), the Potency is reported as “inactive”.
For `CC(=O)[C@H]1CC[C@H]2[C@@H]3CC=C4C[C@@H](OS(=O)(=O)O)CC[C@]4(C)[C@H]3CC[C@]12C`, the Potency was “inactive”.
With `O=C(Nc1cccc(S(=O)(=O)N2CCCCC2)c1)C1CCN(C(=O)c2ccc(Cl)cc2)CC1` the Potency was “inactive”.
With `O=C1c2cccc(NCCCNCCO)c2C(=O)c2cccc(NCCCNCCO)c21` the Potency was active: 7.94 µM.
For `COC(=O)C1=CN(c2cccc(C(F)(F)F)c2)C=C(C(=O)OC)C1c1ccc(O)c(OC)c1`, the Potency was inconclusive: 11.2 µM [inhibitor, partial curve, poor fit].
In the case of `Nc1ncnc(Oc2cccc3cccnc23)c1[N+](=O)[O-]`, the Potency is reported as inconclusive: 6.31 µM [inhibitor, partial curve, poor fit].
For `NC(=O)C1CCN(C(=O)CCNS(=O)(=O)c2ccccc2F)CC1`, the Potency was “inactive”.
In the case of `O=C(/C=C/c1ccccc1)Oc1cccc2cccnc12`, the Potency is reported as inconclusive: 3.16 µM [inhibitor, full curve].
For `CCc1ccc(NC(=O)C(=O)NCCN2CCN(Cc3ccc([N+](=O)[O-])cc3)CC2)cc1`, the Potency was “inactive”.
With `CCCOC(=O)C1=C(C)NC(=O)NC1c1cccc2ccccc12` (stereo not drawn) the Potency was inconclusive: 28.2 µM [inhibitor, single point].
For `C=CCn1c(O)c(N=NC(=S)Nc2ccccc2C)c2cc(S(=O)(=O)N3CCOCC3)ccc21`, the Potency was inconclusive: 0.501 µM [inhibitor, full curve, poor fit].
In the case of `COc1ccc(C(=O)NCC(c2cccs2)S(=O)(=O)c2ccc(F)c(C)c2)cc1` (stereo not drawn), the Potency is reported as “inactive”.
In the case of `CC1CC(C)CN(CCCNC(=O)CCNC(=O)Cn2cnc3ccccc3c2=O)C1` (stereo not drawn), the Potency is reported as inconclusive: 11.2 µM [inhibitor, partial curve, poor fit].
For `CC(C)NC1CCC(Nc2ccnc3cc(Cl)ccc23)CC1` (stereo not drawn), the Potency was inconclusive: 0.891 µM [inhibitor, full curve, poor fit].
For `Cc1ccccc1NC1=C/C(=N\S(=O)(=O)c2ccc(C(=O)O)cc2)c2ccccc2C1=O`, the Potency was inconclusive: 7.08 µM [inhibitor, partial curve, poor fit].
In the case of `O=[N+]([O-])c1ccc(C=NN2CCNC2=S)o1`, the Potency is reported as inconclusive: 12.6 µM [inhibitor, partial curve, poor fit].
For `O=C(/C=C/c1ccccc1)CCN1CCOCC1`, the Potency was inconclusive: 14.1 µM [inhibitor, partial curve, poor fit].
With `N#Cc1c2c(c(Nc3ccc(O)cc3)n3c1nc1ccccc13)CCC2` the Potency was inconclusive: 1 µM [inhibitor, partial curve, poor fit].
With `FC(F)(F)c1ccccc1NC(=S)NN=C1CCCCCC1` the Potency was inconclusive: 14.1 µM [inhibitor, partial curve, poor fit].
In the case of `CC(C)(C)c1csc(N/N=C/c2cccnc2)n1`, the Potency is reported as “inactive”.
For `Cc1nn2c(=O)cc(COC(=O)c3ccc(NC(=O)CCc4ccccc4)cc3)nc2s1`, the Potency was “inactive”.
For `CCOc1ccc(-c2cn(-c3ccc(OC)cc3)c(SC)n2)cc1`, the Potency was “inactive”.
With `COc1ccc(CCNC(=O)C(=O)NCC(c2ccco2)S(=O)(=O)c2cccs2)cc1` (stereo not drawn) the Potency was “inactive”.
With `COc1ccc(N2C(=O)CS/C2=N\C(=S)Nc2ccccc2)cc1` the Potency was inconclusive: 0.501 µM [inhibitor, full curve, poor fit].
In the case of `O=c1c(Cl)c(NCCCO)cnn1-c1nc2ccccc2[nH]1`, the Potency is reported as inconclusive: 12.6 µM [inhibitor, single point].
For `O=C(NC(=S)N(CCO)Cc1ccccc1)c1ccc(F)cc1Cl`, the Potency was inconclusive: 11.2 µM [inhibitor, single point].
With `Cc1ccc(NC(=O)c2ccc(S(=O)(=O)N3CCC(C)CC3)cc2)nc1` the Potency was inconclusive: 28.2 µM [inhibitor, single point].
With `COc1cc(/C=C2\C(=O)N(c3ccc(NC(C)=O)cc3)N=C2c2ccccc2)ccc1O` the Potency was “inactive”.
In the case of `COc1ccc(C(=O)NCC(=O)N/N=C/c2cccnc2)cc1`, the Potency is reported as inconclusive: 28.2 µM [inhibitor, single point].
In the case of `CCOC1=CC2=C(C(=O)C(Cl)=CC2=O)[C@@H]2CN(S(=O)(=O)c3ccc(C)cc3)[C@@H](c3ccccc3)[C@H]12`, the Potency is reported as inconclusive: 10 µM [inhibitor, single point].
In the case of `C/C(=N/NC(=O)c1cc2ccccc2cc1O)C1C(=O)c2ccccc2C1=O`, the Potency is reported as inconclusive: 11.2 µM [inhibitor, partial curve, poor fit].
In the case of `COc1ccc(-c2nc3ccccc3n2Cc2ccc(C(C)C)cc2)cc1`, the Potency is reported as “inactive”.
In the case of `Cc1cccc(NC(=O)c2cccc(N3C(=O)C4C5C=CC(C6CC56)C4C3=O)c2)c1` (stereo not drawn), the Potency is reported as inconclusive: 20 µM [inhibitor, single point].
